According to the RNAGym collection of RNA variant scans (doi:10.1073/pnas.2313332121):
This sample is rich in variants without activity.

B1: TPR 5TU (parent)
chain: GGAUCUUCUCGAUCUAACAAAAAAGACAAAUCUGCCACAAAGCUUGAGAGCAUCUUCGGAUGCAGAGGCGGCAGCCUUCGGUGGCGCGAUAGCGCCAACGUUCUCAACUAUGACACGCAAAACGCGUGCUCCGUUGAAUGGAGUUUAUCAUG

Variants of: B1
Assay: polymerase ribozyme fitness, log enrichment relative to wild type (log ratio); higher = more active; in vitro selection for triplet polymerase activity
Procedure, shortened: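 Only genotypes with ≥10 input reads and ≥1 read per output were kept after Illumina sequencing of input and output libraries. These libraries were PCR-built, transcribed mutants of each subunit of a heterodimeric triplet polymerase ribozyme, each put through one triplicate in vitro selection round with frozen incubation at −7 °C, gel excision of extended constructs, streptavidin-bead capture and RT-PCR. Fitness is a logarithmic ratio of genotype enrichment to wild-type enrichment, from inverse-variance-weighted replicate averages, with the logarithm in base 2.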

Row | Variant | polymerase ribozyme fitness (log ratio)
1 | G81U C85A U139G | -0.703
2 | G81U C95U | -1.63
3 | G81U C96U | -1.85
4 | G81U G92U U148G G152A | -3.95
5 | U82A A91G C105U | -2.53
6 | U82A A106U C116U G126U U145C | -2.88
7 | U82A A137U U146G | ≤ -4.2
8 | U82A C95A A97C C103U U134A | -3.46
9 | U82A G86A A98U U134A | -3.68
10 | U82A U102G | -2.54
11 | U82A U146A | -0.606
12 | U82C A89U C96G G100A A106U | ≤ -4.2
13 | U82C A115U G136C | -3.84
14 | U82C C93G C116G C118U G140A A150C | ≤ -4.2
15 | U82C C96G A107C C108G C114U | ≤ -4.2
16 | U82C C96G A115U U134A U146G A147G | ≤ -4.2
17 | U82C G84A A98U A115U G141A | -2.58
18 | U82C G88C C105U G141A C149U | ≤ -4.2
19 | U82C U135C U146C | -2.14
20 | U82G A98C C103A A138C U144G | ≤ -4.2
21 | U82G A110G C125G A137U | ≤ -4.2

Row | Variant | polymerase ribozyme fitness (log ratio)
22 | U82G A121G | -0.49
23 | U82G A138G A150C | ≤ -4.2
24 | U82G C85G C105A G136A U145A | ≤ -4.2
25 | U82G C87A C93A | ≤ -4.2
26 | U82G C95A A110U A138U | ≤ -4.2
27 | U82G G84U C99U G128C | ≤ -4.2
28 | U82G G86U A107G | ≤ -4.2
29 | U82G G86U C123U | -1.47
30 | U82G G92U C131A | -3.24
31 | U82G G141U | 1.45
32 | U82G U104C C116U C125U A138C | ≤ -4.2
33 | G83A A91G C93U C149A | ≤ -4.2
34 | G83A A91U G100U | ≤ -4.2
35 | G83A A97C U139A | ≤ -4.2
36 | G83A A98U | -0.299
37 | G83A A115C A122U U134A | -3.03
38 | G83A A115C U135A G143A U145G | ≤ -4.2
39 | G83A A115G | -1.64
40 | G83A A115G A150G | -2.88
41 | G83A A119C A137G G143A | -2.54
42 | G83A C85A C87A A113U | ≤ -4.2

Row | Variant | polymerase ribozyme fitness (log ratio)
43 | G83A C87A A138U G143A | ≤ -4.2
44 | G83A C95U A106C A107G | -3.5
45 | G83A C96G U151A | ≤ -4.2
46 | G83A C114U | -2.41
47 | G83A C118A C129A | -3.64
48 | G83A C118A G133A | ≤ -4.2
49 | G83A G86U C95U C116U U146C C149U | ≤ -4.2
50 | G83A G128U G140C A142G | ≤ -4.2
51 | G83A U101C | -2.23
52 | G83A U102G | ≤ -4.2
53 | G83A U104G A122U U134G | -3.23
54 | G83C A107C G141U | ≤ -4.2
55 | G83C A110G A142C U144A | ≤ -4.2
56 | G83C C85G A122U | ≤ -4.2
57 | G83C C93G G112A A115C | ≤ -4.2
58 | G83C C95A G140C U148A C149A | ≤ -4.2
59 | G83C C96U A147U G152A | -1.98
60 | G83C C116A U146G | -3.27
61 | G83C C131G | -3.32
62 | G83C G86A U101C G124U G133U | ≤ -4.2
63 | G83C G126A | 0.0538

Row | Variant | polymerase ribozyme fitness (log ratio)
64 | G83C G126U | 0.246
65 | G83C G136C | -4.09
66 | G83C U90C A107C C116A U127C A150C | ≤ -4.2
67 | G83C U90G A91G | ≤ -4.2
68 | G83C U145G | -0.686
69 | G83C U148G G152A | -3.67
70 | G83U A91U C105A A113U C149A | ≤ -4.2
71 | G83U A98C C123U C125U C129A | -3.47
72 | G83U A121C A142U | -1.46
73 | G83U C87G | ≤ -4.2
74 | G83U C93A G143C | ≤ -4.2
75 | G83U C95U A119U G133U | ≤ -4.2
76 | G83U C103U | 0.2
77 | G83U C105G A107G U135G G152C | ≤ -4.2
78 | G83U G86C A89C C114G C125U A147G | ≤ -4.2
79 | G83U G88U A107U A110G A121U | ≤ -4.2
80 | G83U G94U C116A C132G G140U | -3.11
81 | G83U G100U C103A C131U | ≤ -4.2
82 | G83U G112U | -4
83 | G83U U90G C118A | ≤ -4.2
84 | G84A A97U A147U | 0.467
